Experimental data from the supplement of paper PMC11417369.
Some of the results follow.

Tested on: PF3D7_0420300 AP2 domain 1 (GST-tagged)
Assay: gcPBM binding intensity (ln(normalized median fluorescence intensity)); higher = stronger DNA binding
In short: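 After 1 h on an Agilent 4 × 180k array of primer-extended double-stranded 36-bp intergenic genomic probes and negative controls, bound GST-tagged P. falciparum DNA-binding domains were detected with Alexa488 anti-GST antibody and scanned at 488 nm. The domains had been expressed in E. coli, and binding took place in 1× PBS with 1% milk, 0.2 mg/ml BSA, 0.5% salmon testes DNA and 0.03% Triton X-100. Binding intensity is the highest Masliner-normalised natural-log median intensity across replicate spots of either probe orientation.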

Q: “TAATATTTTATTTTTGTTGTGGATCCAAAAAAAAAA [CACACA_negctrl_site846]” was tested. Which “gcPBM binding intensity (ln)” value did it give?
A: The value was 8.76.

Q: “CTATATATTTAAAAAAGTACAAATATAAAAATATAT [XGTACX_site676]” was tested. Which “gcPBM binding intensity (ln)” value did it give?
A: Its value is 9.25.

Q: Which “gcPBM binding intensity (ln)” value does the source give for “TTTTGTTCATACAAATTGGAACAAGACAAAAATATA [XGTACX_negctrl_site327]” here?
A: Its value is 8.97.

Q: How did the “gcPBM binding intensity (ln)” value turn out when “TACATAATTTTAATCACACACAAACAAACACATACA [CACACA_site194]” was run?
A: Its value is 9.9.

Q: Which “gcPBM binding intensity (ln)” value does the source give for “GTAAGTATATATAATAGTACATATATATTAATATAT [XGTACX_site4314]” here?
A: Its value is 9.36.

Q: For “TTTTTTTTTTTTGTAACATGCAAACAACAATATGGG [TGCATGCA_site695]”, which “gcPBM binding intensity (ln)” value is on record?
A: Its value is 8.99.

Q: How did the “gcPBM binding intensity (ln)” value turn out when “GGGAGGATATTACACAGTACCCAGGAAATCTACGGA [XGTACX_site4874]” was run?
A: Its value is 9.2.

Q: Which “gcPBM binding intensity (ln)” value does the source give for “TATGTTCCGAAGGTTGTACACACATAGAAATATACA [CACACA_site9285]” here?
A: Its value is 9.5.

Q: For “ATGTAATTGTATACATGTACGCAAACACAAAAGCAT [XGTACX_site6771]”, which “gcPBM binding intensity (ln)” value is on record?
A: Its value is 9.53.

Q: Which “gcPBM binding intensity (ln)” value does the source give for “AAGGAAAAAACAAATACACACAAAAACGCATTATAA [CACACA_site3466]” here?
A: The value was 10.

Q: How did the “gcPBM binding intensity (ln)” value turn out when “ATGAACTTATTTTAGTGTACTAAAAAATATGACTTC [XGTACX_site470]” was run?
A: The value was 8.94.

Q: “TAGGTCATATTTTTTGCACACAAAAAAAAATATAAA [CACACA_site3380]” was tested. Which “gcPBM binding intensity (ln)” value did it give?
A: The value was 9.04.

Q: Which “gcPBM binding intensity (ln)” value does the source give for “TTTTTCCAATCAGATGCATGTTACTATATTTGGTTC [TGCATGCA_site52]” here?
A: The value was 9.2.

Q: “CACCTCAATATTCACATACACACAATATCATCGAAG [CACACA_site1675]” was tested. Which “gcPBM binding intensity (ln)” value did it give?
A: Its value is 9.53.

Q: “TGTATAAGGTTTTTACGTTTTGAAGGATGTATTGTT [CACACA_negctrl_site1245]” was tested. Which “gcPBM binding intensity (ln)” value did it give?
A: The value was 9.43.

Q: For “TATCATTTTGAAGTATGTACTTATTTTATTAAAATA [XGTACX_site7784]”, which “gcPBM binding intensity (ln)” value is on record?
A: Its value is 9.01.

Q: For “ATTATATTAAAATATTCACACACTAACGTAAATCAT [CACACA_site8887]”, which “gcPBM binding intensity (ln)” value is on record?
A: Its value is 9.4.

Q: “TAAATACATAAATACACACACATATATATATATATA [CACACA_site5549]” was tested. Which “gcPBM binding intensity (ln)” value did it give?
A: The value was 9.68.

Q: For “ATATTTTGGGTGTTGTTTTTTTTTAAAACTCTTTAA [CACACA_negctrl_site1255]”, which “gcPBM binding intensity (ln)” value is on record?
A: Its value is 9.39.

Q: “TTACTATTTCACTGTGCATGCAACAAAAATCTATCT [TGCATGCA_site808]” was tested. Which “gcPBM binding intensity (ln)” value did it give?
A: The value was 9.23.

Q: Which “gcPBM binding intensity (ln)” value does the source give for “ATTAGTTTATATGAATGATTTTTCTTTTTTTTTTTT [CACACA_negctrl_site88]” here?
A: The value was 9.19.

Q: With “CGTAGCCGCACTAACACACACAAATATACGCAATCA [CACACA_site2898]” as the sequence, how does the “gcPBM binding intensity (ln)” value read?
A: The value was 9.67.

Q: With “AAAAAAAAAAAAAATAATAAATAAATAAATAAATAA [GTGCAC_negctrl_site505]” as the sequence, how does the “gcPBM binding intensity (ln)” value read?
A: The value was 8.99.

Q: Which “gcPBM binding intensity (ln)” value does the source give for “AAAAATAAAAAAAAATTAAAATATATATATTTTGTT [TGCATGCA_negctrl_site102]” here?
A: The value was 9.13.

Q: “AGGAAAAAAAGTAGCACACAAATATTTATAATATAT [CACACA_site2437]” was tested. Which “gcPBM binding intensity (ln)” value did it give?
A: The value was 9.65.

Q: “GAGAGGATACATACATGTACATAAATATTTTATTTT [XGTACX_site5129]” was tested. Which “gcPBM binding intensity (ln)” value did it give?
A: Its value is 9.24.

Q: Which “gcPBM binding intensity (ln)” value does the source give for “CATATAATAAATAATACACACATATTGGAAATATAT [CACACA_site3212]” here?
A: The value was 9.73.

Q: For “TTTATTTATTTATATTTTTTTATATAATTTATATAT [GTGCAC_negctrl_site301]”, which “gcPBM binding intensity (ln)” value is on record?
A: Its value is 9.23.

Q: Which “gcPBM binding intensity (ln)” value does the source give for “AAAGGTATATATGTGTGTACATATATATATATATAT [XGTACX_site5629]” here?
A: The value was 9.36.

Q: “CACATTTCTGTAGTTGCATGTAGAAAAAAAAAAAAA [TGCATGCA_site810]” was tested. Which “gcPBM binding intensity (ln)” value did it give?
A: The value was 8.84.

Q: How did the “gcPBM binding intensity (ln)” value turn out when “TTTTGAGAAAAAATAAAATAATAAATAAAAATACAT [XGTACX_negctrl_site66]” was run?
A: Its value is 9.28.

Q: For “AATACAATTGAAAATTGTACTTTGTTTTTTATAAAT [XGTACX_site4080]”, which “gcPBM binding intensity (ln)” value is on record?
A: Its value is 9.1.

Q: How did the “gcPBM binding intensity (ln)” value turn out when “TTTGATTTTAATGTGTGTACACATTTATTTATATAA [XGTACX_site4806]” was run?
A: The value was 9.49.

Q: “GATTTATATTTTAAAAGTACAAGTTAAAATAAAAGT [XGTACX_site7059]” was tested. Which “gcPBM binding intensity (ln)” value did it give?
A: Its value is 9.33.

Q: “ATATAAGTATAATTATGTACTTATACTTATATAAAT [XGTACX_site5585]” was tested. Which “gcPBM binding intensity (ln)” value did it give?
A: The value was 9.04.

Q: With “AATATAAGATTATTATGTACATAATAAATATGTATT [XGTACX_site4773]” as the sequence, how does the “gcPBM binding intensity (ln)” value read?
A: The value was 9.29.

Q: With “ATATAATATCTGTATACACACATATTATATAATATT [CACACA_site5940]” as the sequence, how does the “gcPBM binding intensity (ln)” value read?
A: The value was 9.56.

Q: How did the “gcPBM binding intensity (ln)” value turn out when “CATATTAATACAGAATGTACGGATAACAAACTGTTT [XGTACX_site7935]” was run?
A: Its value is 9.09.

Q: “TTTTTTTTTTTGGTTACACACATTTGTATATTCTCA [CACACA_site134]” was tested. Which “gcPBM binding intensity (ln)” value did it give?
A: Its value is 9.67.

Q: With “GGTCATCATCGGTATTGTACAAAAATGTGAAAATTA [XGTACX_site639]” as the sequence, how does the “gcPBM binding intensity (ln)” value read?
A: Its value is 9.17.

Q: How did the “gcPBM binding intensity (ln)” value turn out when “ATAATTATATGATGAGTGCACAATAAAAATATCGTT [GTGCAC_site9920]” was run?
A: The value was 9.41.

Q: “TTTTATTTAGGAGGTGCATGTAATACGGAACATAAT [TGCATGCA_site827]” was tested. Which “gcPBM binding intensity (ln)” value did it give?
A: The value was 9.42.

Q: For “CCATAACTCCTATGCACACATAAATATTACAGAGAT [CACACA_site5984]”, which “gcPBM binding intensity (ln)” value is on record?
A: The value was 9.39.

Q: How did the “gcPBM binding intensity (ln)” value turn out when “GCACGAAACAATGTATATATATATATATATATATAT [GTGCAC_negctrl_site412]” was run?
A: The value was 9.12.

Q: Which “gcPBM binding intensity (ln)” value does the source give for “TTCTTTATGGAAGTGTAAAAAAAGAAATACTTTTTT [CACACA_negctrl_site915]” here?
A: The value was 8.7.

Q: “ATATAACAGAAACACACACACATATATATATATTAT [CACACA_site4140]” was tested. Which “gcPBM binding intensity (ln)” value did it give?
A: Its value is 10.2.

Q: How did the “gcPBM binding intensity (ln)” value turn out when “ATAAATGATAGTAAAAGTACACAAAATGTTTTAAAA [XGTACX_site1623]” was run?
A: The value was 9.07.

Q: How did the “gcPBM binding intensity (ln)” value turn out when “TATTTTTATATATAATCACACATTGGAATGTTCTAA [CACACA_site5540]” was run?
A: The value was 9.14.

Q: “TACACAAACAGACACACACACACACGCGCACAAAAA [CACACA_site7192]” was tested. Which “gcPBM binding intensity (ln)” value did it give?
A: Its value is 10.2.

Q: With “ATTATAAATATATTTTGTACTTAAAAGGAAAAAAAA [XGTACX_site55]” as the sequence, how does the “gcPBM binding intensity (ln)” value read?
A: Its value is 9.02.

Q: “ATTACATGTATACATGTCAACACGTATAAAAAAAAA [CACACA_negctrl_site1154]” was tested. Which “gcPBM binding intensity (ln)” value did it give?
A: The value was 9.06.

Q: For “AATAAGCATAGACACACACACAAAAAAAAAAAAAAA [CACACA_site6476]”, which “gcPBM binding intensity (ln)” value is on record?
A: The value was 9.66.

Q: With “GATTATCTTCAAGTATGTACACACTATATATAATAA [XGTACX_site5108]” as the sequence, how does the “gcPBM binding intensity (ln)” value read?
A: Its value is 9.3.

Q: Which “gcPBM binding intensity (ln)” value does the source give for “AATAAATAGAGGAAATGTACATATAAAAATAATTTC [XGTACX_site2454]” here?
A: Its value is 9.42.

Q: For “TTAACATCTTCGTTGACACACAAAAAAAAAAATAAT [CACACA_site1819]”, which “gcPBM binding intensity (ln)” value is on record?
A: Its value is 9.2.

Q: AACATTTATATTTAAGTGCAGATGCTGTAATTTAGA was tested. Which “gcPBM binding intensity (ln)” value did it give?
A: Its value is 9.09.
